# Data taken from PubChem BioAssay AID686971 (National Center for Advancing Translational Sciences (NCATS), 2013).
# Screen size: about 360,000 compounds; about 7,500 (2.1%) were called active. This list was built around the results that the source calls inconclusive (neither active nor inactive); the mix of calls is not that of the screen. Calls come from the whole dose curve; as a rule, active = well fitted cell-killing curve with a large enough effect; inconclusive = small, poorly fitted or top-dose-only effect, or effect the other way, or another doubt; inactive = no such curve, though single readings can be large or run the other way. No potency is given beside an inconclusive call; the fits are too rough.
# Test: qHTS for induction of synthetic lethality in tumor cells producing 2HG: qHTS for the HT-1080-IDH1KD cell line;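 for activity, negative = toxicity: 0% = DMSO wells and -100% = cell-free medium wells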
# Details: HT-1080 IDH1 knockdown viability, ATP luminescence, 48 h; activity, negative = toxicity: at 46.1 µM (top of the series) unless noted
# Outline: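 Using the IDH1-knockdown HT-1080 line run in the same batch and compound series as the NT line, viability after 48 h at 37 °C was determined by CellTiter-Glo luminescence and expressed as % activity.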
# Potency is the fitted concentration of half-maximal effect; tags give direction and shape of the fitted curve.
SMILES,"activity, negative = toxicity",Potency
O=C(CSc1ncnc2c1nnn2Cc1ccccc1F)N1CCN(c2ccccc2)CC1,inactive: 11.9%,
Cc1cccc(NC(=S)N(CCCN2CCCC2)Cc2cccn2Cc2ccc(Cl)cc2)c1,,"inconclusive [cytotoxic, single point]"
COc1cc(/C=N/N2C(=O)CSC2=S)cc(Br)c1O,inactive: -2.02%,
O=C(NCC1CCCO1)C(c1cccs1)N(C(=O)c1ccc(-c2ccccc2)[nH]1)C1CCCC1 (stereo unspecified),,"inconclusive [cytotoxic, single point]"
Cc1cccc(N2CCN(C(=S)Nc3ccc4nc(N5CCN(C)CC5)cc(C)c4c3)CC2)c1C,inactive: 1.12%,
COc1ccc(-c2nn(-c3ccccc3)cc2C(=O)OCC(=O)c2ccc(C)c([N+](=O)[O-])c2)cc1,,"inconclusive [cytotoxic, single point]"
C/C=C(\C)CN1CCN(c2cccc(C)c2C)CC1,,"inconclusive [cytotoxic, single point]"
Cc1cc(Nc2ccc(Cl)cc2)n(-c2cccc(Cl)c2)n1,,"inconclusive [cytotoxic, partial curve]"
CCCC(C)C(=O)Nc1ncc(S(=O)(=O)c2ccc([N+](=O)[O-])cc2)s1 (stereo unspecified),inactive: -14.3%,
Cc1cc(S(=O)(=O)Nc2ccc(C(=O)NC3CC3)cc2)ccc1F,inactive: 1.25%,
O=C(NCc1cccs1)C1CCCN(c2nc3ccccc3o2)C1 (stereo unspecified),inactive: 14.9%,
COc1ccccc1/C=C\C(=O)NCC(=O)N/N=C(/C)c1cccc([N+](=O)[O-])c1,,"inconclusive [cytotoxic, partial curve]"
CCOC(=O)C1CCCN(C(=O)c2ccc3nc(-c4cccc(OC)c4)oc3c2)C1 (stereo unspecified),,active: 6.51 µM
CC(=O)Nc1cccc(-c2cc(NC=O)c3ncc(-c4cccc(C(C)=O)c4)n3c2)c1,,"inconclusive [cytotoxic, single point]"
CC(C)C[C@H]1CNC(=S)N1C[C@H]1CCCN1C[C@H](CC(C)C)N1C[C@H](Cc2ccc(O)cc2)N(CCc2ccccc2)C1=S,,"inconclusive [cytotoxic, single point]"
COC(=O)c1ccccc1NC(=O)CSc1nc(C)cc(C)n1,inactive: 0.665%,
Cc1ccsc1/C=N/n1cnnc1,,"inconclusive [rising, single point]"
COc1cc(/C=N/Nc2nncn2N)ccc1OCc1c(C)no[n+]1[O-],,"inconclusive [cytotoxic, partial curve]"
C/C(=N\NC(=O)COc1ccccc1-c1ccccc1)c1ccccn1,,"inconclusive [cytotoxic, full curve]"
O=C1C(Cl)=C(N2CCCCC2)C(=O)C(Cl)=C1c1cnc(N2CCCCC2)s1,,active: 16.4 µM
CCOC(=O)c1cc(-c2csc(COc3ccccc3Cl)n2)on1,inactive: -17.6%,
Cc1ccc(S(=O)(=O)Nc2ccc3[nH]c(=O)[nH]c3c2)c(C)c1,inactive: -19.8%,
O=C(NNc1c([N+](=O)[O-])cc(C(F)(F)F)cc1[N+](=O)[O-])c1ccco1,,"inconclusive [cytotoxic, single point]"
CN1CCN(Cc2nc3ccccc3c(=O)n2Cc2nc(-c3ccc4ccccc4c3)cs2)CC1,,active: 3.66 µM

SMILES,"activity, negative = toxicity",Potency
Cc1ccc2oc(C(Cl)(Cl)Cl)cc(=O)c2c1,,"inconclusive [cytotoxic, single point]"
C=CCN1C(=O)/C(=C/C=C2/N(CC)c3ccc(S(=O)(=O)N(C)C)cc3N2CC)SC1=S,inactive: -13.1%,
OCC[C@H]1C[C@@H](O)[C@H](O)[C@]2(Cc3ccccc3CCO2)O1,inactive: 14.6%,
CCOc1ccc(NC(=O)CNC(=O)c2nn(-c3ccc(OC)cc3)c(=O)c3ccccc23)cc1,inactive: 0.817%,
O=C(Nc1nc2cc3c(cc2s1)OCCO3)c1cccs1,,"inconclusive [cytotoxic, partial curve]"
CCC(=O)c1ccc(OCC(O)CN2CCN(C(c3ccccc3)c3ccccc3)CC2)cc1 (stereo unspecified),,"inconclusive [cytotoxic, single point]"
Cc1ccc(S(=O)(=O)N2CCOCC2)cc1NC(=O)CNCC1CCCCC1,inactive: 2.49%,
CCOC(=O)N1CC=C2C(C#N)=C(N)C(C#N)(C#N)[C@H](c3cccs3)C2C1 (stereo partly specified),,"inconclusive [cytotoxic, partial curve]"
c1csc(-c2nc(NCCCN3CCOCC3)c3ccccc3n2)c1,,"inconclusive [cytotoxic, single point]"
CC(C)N1C(=O)/C(=C/c2nc3ccccc3c(=O)n2-c2ccccc2)c2ccccc21,,"inconclusive [cytotoxic, single point]"
Cc1ccccc1C(=O)O/N=C(\N)c1cccc([N+](=O)[O-])c1,,"inconclusive [cytotoxic, single point]"
COc1ccc(CNC(=O)c2ccc(CS(=O)(=O)c3ccc(Br)cc3)o2)cc1,inactive: 4.95%,
Cc1ccc(C2=NN(C(=O)CCl)C(c3cccs3)C2)o1 (stereo unspecified),,active: 2.31 µM
Cc1ccc(C)c(CN2C(=O)c3ccccc3S(=O)c3ccc(C(=O)NCCCN4CCCC4)cc32)c1 (stereo unspecified),,"inconclusive [cytotoxic, single point]"
CCCC1=NN(C(=O)C(=O)Nc2ccc(Br)cc2)C(O)(C(F)(F)F)C1 (stereo unspecified),,active: 16.4 µM
CCc1nc(Nc2ccc(OC)c(OC)c2)c2nnn(Cc3ccccc3Cl)c2n1,,"inconclusive [cytotoxic, partial curve]"
CC(=O)NC1=NN(C(C)=O)C(C)(c2cccnc2)S1 (stereo unspecified),,"inconclusive [cytotoxic, single point]"
Cc1cc([N+](=O)[O-])nn1Cc1ccc(C(=O)N/N=C/c2ccc(O)cc2O)cc1,,active: 2.06 µM
c1cc(-c2ccc3nncn3c2)ccc1CN1CCOCC1,,"inconclusive [rising, single point]"
COc1ccc(/C=N/NC(=O)c2cc3c(OC)ccc(OC)c3[nH]2)cc1O,,active: 0.411 µM
COc1ccc(NC(=O)C2Cc3c(-c4cccc(C(N)=O)c4)ccnc3O2)cn1 (stereo unspecified),,active: 20.6 µM
N#Cc1ccc(C(=O)NC23CC4CC(CC(C4)C2)C3)cc1,inactive: 10.6%,
CSc1ccc(C2C(C#N)=C(N)Oc3c2ccc(=O)c2c(C)oc(C)c32)cc1 (stereo unspecified),,"inconclusive [cytotoxic, single point]"
O=C(CSc1nccc(=O)[nH]1)Nc1ccc2ccccc2c1,inactive: 4.17%,

SMILES,"activity, negative = toxicity",Potency
CCOC(=O)N1CCN(Cc2nc(N)nc(Nc3ccc(Oc4ccccc4)cc3)n2)CC1,,"inconclusive [cytotoxic, partial curve]"
Cc1ccc(C(=O)N/N=C\c2cc(Br)c(Br)o2)cn1,,"inconclusive [cytotoxic, single point]"
Cc1c(CN(C)Cc2cn(C)nc2-c2ccccc2F)[nH]c2ccccc12,,"inconclusive [cytotoxic, single point]"
O=C(Cc1ccc(Cl)c(Cl)c1)Nc1cccnc1,inactive: -11%,
O=C(N/N=C/c1ccc(-c2ccccc2Cl)o1)c1ccccc1,,"inconclusive [cytotoxic, single point]"
Cc1ccc2c(c1)/C(=C/c1ccccc1)C(=O)N2,,"inconclusive [cytotoxic, single point]"
O=C(N/N=C/c1cccs1)c1cccc2cc[nH]c12,,active: 15.8 µM
COC(=O)c1scc(C#N)c1N/N=C(\C#N)S(=O)(=O)c1ccc(Cl)cc1,,"inconclusive [cytotoxic, single point]"
COc1cccc(C(=O)N(Cc2ccccc2)Cc2cc3cc4c(cc3[nH]c2=O)OCCO4)c1,,"inconclusive [cytotoxic, single point]"
O=C(COC(=O)C1CC(=O)N(Cc2ccccc2)C1)c1ccc(F)cc1 (stereo unspecified),inactive: 24.8%,
COc1cccc(-c2cnc(C(O)c3ccc(-c4ccccc4)cc3)[nH]2)c1 (stereo unspecified),,"inconclusive [cytotoxic, single point]"
Cc1ccc(O)c(C(=O)c2cc(C#N)c(=O)n(-c3nccs3)c2)c1,,"inconclusive [cytotoxic, single point]"
NC(=O)c1ccsc1NC(=O)COC(=O)CNC(=O)c1cccc([N+](=O)[O-])c1,inactive: 12%,
CCC(c1nnnn1-c1ccc2c(c1)OCCO2)N1CCN(c2ccc(C(F)(F)F)cc2[N+](=O)[O-])CC1 (stereo unspecified),inactive: 2.66%,
CCC(NC(=O)OCc1ccccc1)C(=O)Oc1ccc2ccc(=O)oc2c1 (stereo unspecified),inactive: 9.89%,
Cn1cccc1C(=O)NC(=O)COC(=O)c1ccc(S(C)(=O)=O)c([N+](=O)[O-])c1,,"inconclusive [cytotoxic, partial curve]"
Cc1cc(SCC(=O)Nc2ncc(Cl)cc2Cl)nc2ccccc12,,"inconclusive [cytotoxic, single point]"
Cc1cc(C(=O)CCl)c(C)n1CCc1ccccc1,,"inconclusive [cytotoxic, single point]"
O=C(Nc1cccc(C(=O)N2CCOCC2)c1)C1CCCCC1,inactive: 0.515%,
Cc1ccc(C)c2[nH]c(=O)c(CN(CCN3CCCC3)C(=O)Nc3cccc(Cl)c3)cc12,,"inconclusive [cytotoxic, single point]"
O=C(NCC(=O)N1CCN(S(=O)(=O)/C=C/c2ccccc2)CC1)c1ccccc1F,,"inconclusive [cytotoxic, single point]"
O=C(NC1CCN(Cc2ccccc2Cl)CC1)c1ccccc1,inactive: 9.85%,
CCCCCCc1cc2cc(S(=O)(=O)c3ccc(F)cc3)c(=O)oc2cc1O,,"inconclusive [cytotoxic, single point]"
